In the supplement of paper PMC5919970:
Structures can show the parent of a compound that is named as a salt. Whole data set: some 2,000 compounds, median “fractional viability relative to vehicle” near 0.92, cut for the lowest 2% near 0.11. This is one part of the list.

Test system: TYKNU
Experiment: fractional viability relative to vehicle; TYKNU is a high-grade serous ovarian cancer line; higher = less growth inhibition
Conditions: 72 h, genotype: OPA1 knockout (sgOPA1 #2)
Procedure, shortened: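 TYKNU control cells or lentiCRISPRv2 knockout derivatives were seeded at 500 cells per well into drug-stamped 384-well plates holding a ~2100-compound library at 2 or 10 μM, in duplicate. Cells were grown at 37 °C in 5% CO2 in RPMI 1640 with 10% FBS, and drug treatment lasted 72 h. Viability was read by Cell Titer Glo luminescence. Duplicate treatment wells were averaged and normalised to duplicate control wells from the same plate position.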

| Structure (SMILES) | fractional viability (2uM) | fractional viability (10uM) |
| --- | --- | --- |
| CC(C(=O)O)c1ccc(C(=O)c2cccs2)cc1 (configuration not stated) [Suprofen] | 1.11 | 0.868 |
| CN1CCN(c2nc(C3=C(c4c[nH]c5ccccc45)C(=O)NC3=O)c3ccccc3n2)CC1 [Sotrastaurin] | 1.05 | 0.803 |
| COc1cc2ncnc(Nc3ccc(F)c(Cl)c3)c2cc1OCCCN1CCOCC1 [Gefitinib (ZD1839)] | 1.15 | 0.804 |
| CCCCC[C@H](O)/C=C/[C@H]1[C@H](O)CC(=O)[C@@H]1CCCCCCC(=O)O [Alprostadil] | 1.1 | 0.989 |
| NC1=N[C@@](c2cccc(-c3cncnc3)c2)(c2ccnc(C(F)F)c2)c2cccc(F)c21 | 0.845 | 0.771 |
| O=C(O)c1ccccc1 [Benzoic Acid] | 0.885 | 0.957 |
| CC[C@@H]([C@H](C)O)n1ncn(-c2ccc(N3CCN(c4ccc(OC[C@@H]5CO[C@@](Cn6cncn6)(c6ccc(F)cc6F)C5)cc4)CC3)cc2)c1=O [Posaconazole] | 1.18 | 0.872 |
| COc1ccc(CN2CCN(C(c3ccc(F)cc3)c3ccc(F)cc3)CC2)c(OC)c1OC [Lomerizine HCl] | 0.896 | 0.906 |
| CC(C)Cc1ccc(C(C)C(=O)O)cc1 (configuration not stated) [Ibuprofen] | 1.02 | 0.942 |
| CCN1CCN(Cc2ccc(Nc3ncc(F)c(-c4cc(F)c5nc(C)n(C(C)C)c5c4)n3)nc2)CC1 | 0.602 | 0.0904 |
| COCCc1ccc(OCC(O)CNC(C)C)cc1 (configuration not stated) [Metoprolol Tartrate] | 1.16 | 1.04 |
| O=C(O)c1cc(I)ccc1NC(=O)[C@H](Cc1ccccc1)NCc1ccccc1 | 0.885 | 0.822 |
| O=c1c(O)c(-c2ccc(O)c(O)c2)oc2cc(O)cc(O)c12 [Quercetin] | 0.873 | 0.927 |
| O=c1c(O)c(-c2ccc(O)c(O)c2)oc2cc(O)cc(O)c12 [Quercetin Dihydrate] | 1.16 | 0.984 |
| COc1ccc(C2=N[C@H](c3ccc(Cl)cc3)[C@H](c3ccc(Cl)cc3)N2C(=O)N2CCNC(=O)C2)c(OC(C)C)c1 [Nutlin-3b] | 0.806 | 0.737 |
| Cc1cnc(C(=O)O)c[n+]1[O-] [Acipimox] | 1.12 | 1 |
| O=C(c1cncc(Br)c1)N1CCC(N2CCCC2)CC1 | 0.797 | 0.838 |
| O=C(Nc1ccc([N+](=O)[O-])cc1O)Nc1ccccc1Br | 0.491 | 0.313 |
| CCN(CC)CCOc1ccc(C(=C(Cl)c2ccccc2)c2ccccc2)cc1 [Clomifene citrate] | 0.952 | 0.564 |
| CCCCNc1ccc(C(=O)OCCN(C)C)cc1 [Tetracaine HCl] | 1.01 | 1.08 |
| CCCCCOC(=O)Nc1nc(=O)n([C@@H]2O[C@H](C)[C@@H](O)[C@H]2O)cc1F [Capecitabine] | 1.01 | 0.906 |
| COc1cc2ncnc(Oc3ccc(CC(=O)Nc4cnn(C(C)C)c4)cc3)c2cc1OC | 0.949 | 0.942 |
| CN1CCC(=C2c3ccccc3CCc3sccc32)CC1 [Pizotifen Malate] | 1.05 | 0.984 |

| Structure (SMILES) | fractional viability (2uM) | fractional viability (10uM) |
| --- | --- | --- |
| COc1ncc(-c2ccc3nccc(-c4ccnnc4)c3c2)cc1NS(=O)(=O)c1ccc(F)cc1F | 0.354 | 0.0636 |
| Cc1cc(-c2ncc(CC(=O)Nc3ccc(-c4cnccn4)cn3)cc2C)ccn1 | 0.961 | 0.859 |
| Cc1cnc(C(=O)NCCc2ccc(S(=O)(=O)NC(=O)NC3CCCCC3)cc2)cn1 [Glipizide] | 0.88 | 0.973 |
| CN1CCC(NC(=O)c2cc(-c3c(O)cc(O)cc3Oc3ccc([N+](=O)[O-])cc3)on2)CC1 | 0.555 | 0.609 |
| c1cc(-c2cnn3cc(-c4ccc(OCCN5CCCCC5)cc4)cnc23)ccn1 [Dorsomorphin (Compound C)] | 1.37 | 0.744 |
| O=C1[C@H](CC[C@H](O)c2ccc(F)cc2)[C@@H](c2ccc(O)cc2)N1c1ccc(F)cc1 [Ezetimibe] | 0.948 | 1.02 |
| Nc1ncnc2c1C(=O)N(c1ccc([C@H]3CC[C@H](CC(=O)O)CC3)cc1)CCO2 | 0.723 | 0.773 |
| Oc1cc(O)c(Cl)cn1 [Gimeracil] | 0.856 | 1.01 |
| COc1ccc2cc(OCC3(C(=O)O)CN(C(=O)c4ccc(F)cc4)C3)ccc2c1 | 1.03 | 0.994 |
| COC(=O)C1=C(C)NC(C)=C(C(=O)OCC(C)C)C1c1ccccc1[N+](=O)[O-] (configuration not stated) [Nisoldipine] | 0.737 | 0.885 |
| CC[C@@H]1/C=C(\C)C[C@H](C)C[C@H](OC)[C@H]2O[C@@](O)(C(=O)C(=O)N3CCCC[C@H]3C(=O)O[C@H](/C(C)=C/[C@@H]3CC[C@@H](O)[C@H](OC)C3)[C@H](C)[C@@H](O)CC1=O)[C@H](C)C[C@@H]2OC [Ascomycin (FK520)] | 0.751 | 0.644 |
| CC1(C)CNc2cc(NC(=O)c3cccnc3NCc3ccncc3)ccc21 [Motesanib Diphosphate (AMG-706)] | 1.21 | 0.923 |
| Cc1nc(C#Cc2ccnc(Cl)c2)c(C)n1-c1ccc(OC(F)(F)F)cc1 | 1.08 | 0.815 |
| CN(C)c1cccc(-c2c3c(=O)n(-c4ccccc4Cl)[nH]c3cc(=O)n2C)c1 | 1.05 | 1.48 |
| COC(=O)C1=C(C)NC(C)=C(C(=O)OCCN(C)Cc2ccccc2)C1c1cccc([N+](=O)[O-])c1 (configuration not stated) [Nicardipine HCl] | 0.927 | 0.678 |
| OC[C@H]1O[C@@H](c2ccc(Cl)c(Cc3ccc(O[C@H]4CCOC4)cc3)c2)[C@H](O)[C@@H](O)[C@@H]1O | 0.787 | 0.736 |
| Cc1cc(-c2ccc(CC(=O)Nc3ccc(-c4cccnc4)cc3)cc2)ccn1 | 0.912 | 1.02 |
| COc1ccc(C2CC(c3ccccc3)=NN2c2ccc(S(N)(=O)=O)cc2)cc1 (configuration not stated) | 0.822 | 0.932 |
| COCCOc1ccc2c(c1)ncn2-c1ccc2cccc(N3CCC(N)CC3)c2n1 | 0.873 | 0.323 |
| Cc1cc(Nc2cc(N3CCN(C)CC3)nc(/C=C/c3ccccc3)n2)n[nH]1 | 0.844 | 0.57 |
| CNCc1cc(-c2ccccc2F)n(S(=O)(=O)c2cccnc2)c1 | 0.781 | 0.821 |
| Cc1nn(C)c2c1C(c1ccc(C(F)(F)F)cc1)C(C#N)=C(N)O2 (configuration not stated) | 0.998 | 0.98 |
| O=C1C(O)=C([C@H]2CC[C@H](c3ccc(Cl)cc3)CC2)C(=O)c2ccccc21 [Atovaquone] | 1.08 | 0.837 |
